Measurements from PubChem BioAssay AID588342 (National Center for Advancing Translational Sciences (NCATS), 2011).
Hit rate of the full screen: of about 360,000 compounds, about 25,000 (6.9%) were called active. This list was built around the results that the source calls inconclusive (neither active nor inactive); the mix of calls is not that of the screen. The call rests on the fitted dose curve; in most records, active means well fitted inhibition curve with a large enough effect; inconclusive means small, poorly fitted or top-dose-only effect; inactive means flat fitted curve, though single readings scatter. Potencies of inconclusive entries are doubtful fits and often do not repeat.

biological target: Luciferin 4-monooxygenase (Photinus pyralis) (UniProt P08659); assay: qHTS profiling assay for firefly luciferase inhibitor/activator using purifed enzyme and Km concentrations of substrates (counterscreen for miR-21 project); settings: purified FLuc, luminescence inhibition; series mostly up to 57.5 µM; further: nearly all actives have a fitted effect of over 55% in size
Chain of UniProt P08659 (P08659 whole entry, looked up): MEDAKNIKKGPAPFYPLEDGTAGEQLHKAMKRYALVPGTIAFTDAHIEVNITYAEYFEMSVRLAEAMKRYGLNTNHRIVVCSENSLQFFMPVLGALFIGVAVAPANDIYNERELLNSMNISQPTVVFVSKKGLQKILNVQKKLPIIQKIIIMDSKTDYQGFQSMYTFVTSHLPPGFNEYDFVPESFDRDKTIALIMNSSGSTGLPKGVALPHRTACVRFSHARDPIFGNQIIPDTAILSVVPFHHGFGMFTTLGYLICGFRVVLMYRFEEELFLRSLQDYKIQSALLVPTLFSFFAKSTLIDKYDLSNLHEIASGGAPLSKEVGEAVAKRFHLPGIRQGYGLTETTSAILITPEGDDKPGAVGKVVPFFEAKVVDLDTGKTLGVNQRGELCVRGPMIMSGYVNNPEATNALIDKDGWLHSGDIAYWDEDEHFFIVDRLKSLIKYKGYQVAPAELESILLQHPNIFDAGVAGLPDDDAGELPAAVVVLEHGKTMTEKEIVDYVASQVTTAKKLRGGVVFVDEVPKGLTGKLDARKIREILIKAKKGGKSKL
In short: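 Purified P. pyralis luciferase (10nM final) with 10uM D-luciferin and 10uM ATP (Km levels) in 50mM Tris acetate pH 7.5, 10mM Mg acetate, 0.01% Tween-20, 0.05% BSA; qHTS 6-point titration, ~60 µM downward; luminescence read.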
Potency means the concentration at half of the fitted maximal effect; tags describe the fitted curve by direction and shape.

Which Potency does the source give for `Cc1ccccc1C(=O)Nc1sc2c(c1C(=O)O)CCC(C(C)(C)C)C2` (configuration not stated) here?
Its Potency is inconclusive: 19 µM [inhibitor, partial curve].

Which Potency does the source give for `Nc1ccc2c(c1)Cc1ccccc1-2` here?
Its Potency is inconclusive: 23.9 µM [inhibitor, partial curve, poor fit].

How did the Potency turn out when `CCC1(C)CC(CCNCc2ccc(N(C)C)cc2)(c2ccc(F)cc2)CCO1` (configuration not stated) was run?
The Potency was “inactive”.

For `CCCCC(=O)N/N=C/c1c(O)n(Cc2ccc(F)cc2)c(=O)[nH]c1=O`, which Potency is on record?
The Potency was inconclusive: 37.9 µM [inhibitor, partial curve, poor fit].

For `COc1ccc(-c2nnc3sc(C4CCCCC4)nn23)cc1OC`, which Potency is on record?
Its Potency is inconclusive: 33.8 µM [inhibitor, partial curve, poor fit].

How did the Potency turn out when `Cc1cccc(C(=O)Nc2ccc3c(c2)CC2(C(=O)N(C)C(=O)N(C)C2=O)C2CCCN32)c1` (configuration not stated) was run?
The Potency was inconclusive: 15.1 µM [inhibitor, partial curve].

`COc1ccc(CN2C(=O)NC(=O)/C(=C\c3ccco3)C2=O)cc1` was tested. Which Potency did it give?
Its Potency is active: 23.9 µM.

How did the Potency turn out when `Cc1ccccc1C(=O)Nc1ccc2nc(SCC(=O)N(C)c3ccccc3)sc2c1` was run?
Its Potency is inconclusive: 6.75 µM [inhibitor, partial curve, poor fit].

`CCCc1cc(=O)oc2c3c(cc(OCC(=O)N[C@@H](C)C(=O)O)c12)OC(C)(C)CC3` was tested. Which Potency did it give?
The Potency was inconclusive: 26.9 µM [inhibitor, single point].

With `Cc1ccc(Cl)cc1N1CCN(C(=O)C2CCN(Cc3nc(-c4ccc(Cl)cc4)oc3C)CC2)CC1` as the compound, how does the Potency read?
The Potency was inconclusive: 10.7 µM [inhibitor, partial curve, poor fit].

Which Potency does the source give for `O=C1NC(=O)C(=Cc2ccccc2Oc2ccc(F)cc2)C(=O)N1` here?
Its Potency is inconclusive: 23.9 µM [inhibitor, single point].

For `O=C(Oc1ccc(Cl)c2cccnc12)N1CCCCCC1`, which Potency is on record?
Its Potency is inconclusive: 37.9 µM [inhibitor, single point].

For `Cc1ccc(/C=C2\C(=O)NC(=S)N(c3ccc(F)cc3)C2=O)o1`, which Potency is on record?
The Potency was inconclusive: 21.3 µM [inhibitor, single point].

With `CN1C(=O)NC(=O)/C(=C\C=C\c2ccccc2[N+](=O)[O-])C1=O` as the compound, how does the Potency read?
Its Potency is inconclusive: 13.5 µM [inhibitor, partial curve].

With `COc1cc(/C=C/[N+](=O)[O-])ccc1O` as the compound, how does the Potency read?
Its Potency is inconclusive: 26.9 µM [inhibitor, single point].

Which Potency does the source give for `O=C(c1cc2cc(Cl)ccc2[nH]1)N1CCC2(CC1)OCCO2` here?
The Potency was inconclusive: 19 µM [inhibitor, single point].

For `O=C(O)c1ccccc1SCC(=O)N1c2ccccc2Sc2ccccc21`, which Potency is on record?
The Potency was inconclusive: 23.9 µM [inhibitor, partial curve, poor fit].

With `CN1C(=O)C(=Cc2ccccc2OS(=O)(=O)c2ccccc2)C(=O)N(C)C1=O` as the compound, how does the Potency read?
Its Potency is inconclusive: 23.9 µM [inhibitor, partial curve, poor fit].

For `O=C1NC(=O)C(=Cc2csc3ccccc23)C(=O)N1`, which Potency is on record?
Its Potency is inconclusive: 15.1 µM [inhibitor, partial curve].

`CN1CCN(c2cccc3c2C(=O)c2ccccc2C3=O)CC1` was tested. Which Potency did it give?
Its Potency is inconclusive: 23.9 µM [inhibitor, single point].

`Cc1ccc(-c2nn(Cc3ccccc3)cc2C=O)cc1` was tested. Which Potency did it give?
Its Potency is active: 19 µM.

Which Potency does the source give for `COc1cc(C(c2c(O)c3ccccc3oc2=O)c2c(C)n(C)n(-c3ccccc3)c2=O)ccc1OCC(=O)O` (configuration not stated) here?
The Potency was inconclusive: 10.7 µM [inhibitor, partial curve].

For `CCN(CC)S(=O)(=O)c1ccc(NN=C(C#N)C#N)cc1`, which Potency is on record?
The Potency was inconclusive: 37.9 µM [inhibitor, partial curve, poor fit].

For `COc1cc(N2CCOCC2)ccc1/C=C1\C(=O)NC(=O)N(Cc2cccs2)C1=O`, which Potency is on record?
The Potency was inconclusive: 23.9 µM [inhibitor, single point].

`Cc1ccc(S(=O)(=O)N(C)N=O)cc1` was tested. Which Potency did it give?
The Potency was inconclusive: 23.9 µM [inhibitor, partial curve, poor fit].

How did the Potency turn out when `COc1ccc(CN2C(=O)NC(=O)/C(=C/c3ccc([N+](=O)[O-])s3)C2=O)cc1` was run?
The Potency was inconclusive: 30.1 µM [inhibitor, single point].

`O=C(N/N=C/c1ccc(C(F)(F)F)cc1)c1ccncc1` was tested. Which Potency did it give?
Its Potency is inconclusive: 16.9 µM [inhibitor, partial curve].

For `CC1CN=C(Nc2cccc3ccccc23)S1` (configuration not stated), which Potency is on record?
Its Potency is inconclusive: 23.9 µM [inhibitor, single point].

Which Potency does the source give for `O=C1NC(=O)N(Cc2ccco2)C(=O)/C1=C/c1ccc(-c2cccc([N+](=O)[O-])c2)o1` here?
Its Potency is inconclusive: 12 µM [inhibitor, partial curve].

For `CCOc1ccc(N2C(=O)NC(=O)/C(=C\c3ccc(N4CCOCC4)cc3C)C2=O)cc1`, which Potency is on record?
The Potency was inconclusive: 26.9 µM [inhibitor, partial curve, poor fit].

`CCOc1ccc(-c2cc(C(=O)N3CCN(c4cccc(C(F)(F)F)c4)CC3)c3ccccc3n2)cc1` was tested. Which Potency did it give?
The Potency was active: 2.39 µM.

For `O=c1nc(/C=C/c2ccc(Cl)cc2Cl)cc(C(F)(F)F)[nH]1`, which Potency is on record?
Its Potency is active: 10.7 µM.

For `Cn1cc(/C=C/c2nc3ccccc3c(=O)n2-c2ccccc2)c2ccccc21`, which Potency is on record?
Its Potency is inconclusive: 9.53 µM [inhibitor, partial curve, poor fit].

`O=C(Nc1ccc2c(c1)OCO2)c1cccn(Cc2cccc(F)c2)c1=O` was tested. Which Potency did it give?
The Potency was active: 26.9 µM.

Which Potency does the source give for `Nc1c(C(=O)Nc2ccc(Cl)cc2)sc2nc3c(cc12)N1CCC3CC1` here?
Its Potency is “inactive”.

For `Nc1ccc(N=Nc2ccccc2)cc1`, which Potency is on record?
Its Potency is inconclusive: 6.75 µM [inhibitor, partial curve, poor fit].

For `O=C1NC(=O)N(CCNc2ncc(C(F)(F)F)cc2Cl)C(=O)C1Cc1ccc(Cl)cc1` (configuration not stated), which Potency is on record?
Its Potency is inconclusive: 16.9 µM [inhibitor, partial curve].

How did the Potency turn out when `CCCCN1C(=O)/C(=C\c2ccco2)C(=O)N(CCc2ccccc2)C1=O` was run?
The Potency was inconclusive: 26.9 µM [inhibitor, single point].

Which Potency does the source give for `CCCOC(=O)c1c(C)oc2c1cc(NS(=O)(=O)c1ccc(OCC)cc1)c1ccccc12` here?
Its Potency is inconclusive: 19 µM [inhibitor, partial curve, poor fit].

For `CCOC(=O)C1=Nc2ccccc2/C1=C\c1c(O)n(C)c(=O)n(C)c1=O`, which Potency is on record?
The Potency was inconclusive: 37.9 µM [inhibitor, single point].

For `COc1ccc(NC(=O)O/N=C/c2ccccc2)cc1`, which Potency is on record?
The Potency was active: 9.53 µM.

For `C=C(C)Cn1c(-c2cccc([N+](=O)[O-])c2)n[nH]c1=S`, which Potency is on record?
Its Potency is inconclusive: 26.9 µM [inhibitor, partial curve, poor fit].

Which Potency does the source give for `COc1ccccc1-n1c(-c2cccs2)nc2ccccc2c1=O` here?
Its Potency is inconclusive: 37.9 µM [inhibitor, partial curve, poor fit].

Which Potency does the source give for `COc1ccc(Nc2cc(C)c3cc(NC(=O)c4ccccc4Cl)ccc3n2)cc1` here?
The Potency was inconclusive: 8.49 µM [inhibitor, partial curve].

For `CC(=O)Nc1ccccc1C(=O)OCC(=O)c1ccc2ccccc2c1`, which Potency is on record?
The Potency was active: 12 µM.

`c1ccc2sc(C3CCCNC3)nc2c1` (configuration not stated) was tested. Which Potency did it give?
Its Potency is “inactive”.

Which Potency does the source give for `c1ccc(-c2cc(-c3ccccc3)[n+](-c3ccccc3)c(-c3ccccc3)c2)cc1` here?
Its Potency is “inactive”.

Which Potency does the source give for `CCOc1ccc(C(=O)Nc2cc(NC(=O)c3ccco3)ccc2OC)cc1Br` here?
The Potency was inconclusive: 21.3 µM [inhibitor, partial curve, poor fit].

For `Cc1ccc(N2C(=O)/C(=C/c3ccc(CN(CCC#N)S(C)(=O)=O)o3)C(=O)NC2=S)cc1`, which Potency is on record?
Its Potency is inconclusive: 19 µM [inhibitor, partial curve].

`O=C(CSc1nnc(NC(=O)c2cc(Br)ccc2Cl)s1)NCC1CCCO1` (configuration not stated) was tested. Which Potency did it give?
The Potency was inconclusive: 15.1 µM [inhibitor, partial curve].

With `Nc1c(C(=O)OC2CCCCC2)c2nc3ccccc3nc2n1CC1CCCO1` (configuration not stated) as the compound, how does the Potency read?
The Potency was inconclusive: 23.9 µM [inhibitor, single point].

For `O=C(Nc1ccc2c(c1)OCCO2)c1cccn(Cc2cccc(F)c2)c1=O`, which Potency is on record?
The Potency was active: 21.3 µM.

`O=c1[nH]c(=S)[nH]c(O)c1N=Nc1cc2c(cc1[N+](=O)[O-])OCO2` was tested. Which Potency did it give?
The Potency was inconclusive: 37.9 µM [inhibitor, partial curve, poor fit].

With `C=CCN1C(=O)NC(=O)/C(=C/c2ccc(OC)c(CSc3ccccn3)c2)C1=O` as the compound, how does the Potency read?
The Potency was inconclusive: 26.9 µM [inhibitor, partial curve, poor fit].

Which Potency does the source give for `COc1ccc(C(=O)Nc2sc3c(c2C(=O)O)CC(C)(C)OC3)cc1` here?
Its Potency is active: 16.9 µM.

For `CCOc1ccccc1N1C(=O)NC(=O)/C(=C/c2ccc3c4c(cccc24)CC3)C1=O`, which Potency is on record?
The Potency was inconclusive: 37.9 µM [inhibitor, partial curve, poor fit].

`C=CCc1cc(C=C2C(=O)NC(=O)NC2=O)cc(OC)c1OCc1ccc(C(=O)O)cc1` was tested. Which Potency did it give?
Its Potency is inconclusive: 19 µM [inhibitor, partial curve].

Which Potency does the source give for `CCC(=NC1CC1)c1c(O)n(C2CCCCC2)c(=O)[nH]c1=O` here?
The Potency was inconclusive: 30.1 µM [inhibitor, partial curve, poor fit].

How did the Potency turn out when `Nc1ccccc1C(=O)OCC(=O)N1CCc2ccccc21` was run?
The Potency was active: 9.53 µM.

`CCOc1ccc2nc(NC(=O)c3cccn(Cc4ccc(Cl)cc4)c3=O)sc2c1` was tested. Which Potency did it give?
The Potency was inconclusive: 12 µM [inhibitor, partial curve, poor fit].

How did the Potency turn out when `Cc1cccc(OCCCn2c(=O)oc3ccccc32)c1` was run?
The Potency was inconclusive: 37.9 µM [inhibitor, single point].

For `Cc1ccccc1OCCCn1cc(C(=O)C(=O)N2CCOCC2)c2ccccc21`, which Potency is on record?
The Potency was inconclusive: 21.3 µM [inhibitor, partial curve].
